{"source": "PubChem BioAssay AID588453", "about": "(National Center for Advancing Translational Sciences (NCATS), 2011)", "note": "In all, about 390,000 compounds went through this assay and about 4,000 (1%) were called active. The shares of active, inactive and inconclusive entries below differ from those in the screen. The call rests on the fitted dose curve; in most records, active means well fitted inhibition curve with a large enough effect; inconclusive means small, poorly fitted or top-dose-only effect; inactive means no such curve, though single readings can be large or run the other way. Where the call is inconclusive, the potency comes from a doubtful curve fit. Potency means the concentration at half of the fitted maximal effect; tags describe the fitted curve by direction and shape.", "data": [{"biological_target": "Thioredoxin reductase 1, cytoplasmic (Rattus norvegicus) (UniProt O89049)", "sequence (O89049 whole entry, looked up)": "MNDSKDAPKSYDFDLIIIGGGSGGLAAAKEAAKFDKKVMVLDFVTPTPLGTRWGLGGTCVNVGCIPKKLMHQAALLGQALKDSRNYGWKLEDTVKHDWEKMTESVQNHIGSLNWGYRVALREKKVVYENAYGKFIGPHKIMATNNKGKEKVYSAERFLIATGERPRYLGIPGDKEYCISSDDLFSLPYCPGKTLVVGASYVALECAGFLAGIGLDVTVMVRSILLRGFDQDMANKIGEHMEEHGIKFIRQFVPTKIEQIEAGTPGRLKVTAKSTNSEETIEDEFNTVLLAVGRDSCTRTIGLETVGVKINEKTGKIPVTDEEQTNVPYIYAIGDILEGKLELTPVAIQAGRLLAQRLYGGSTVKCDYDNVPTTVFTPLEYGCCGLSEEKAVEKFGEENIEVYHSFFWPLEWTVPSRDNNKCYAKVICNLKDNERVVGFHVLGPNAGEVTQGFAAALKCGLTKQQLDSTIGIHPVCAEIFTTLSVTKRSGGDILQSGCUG", "experiment": "qHTS Assay for Inhibitors of Mammalian Selenoprotein Thioredoxin Reductase 1 (TrxR1): qHTS; further: nearly all actives have a fitted effect of over 65% in size", "settings": "recombinant rTrxR1, NADPH fluorescence consumption, selenite substrate; series mostly up to 114 µM", "from_the_text": "The selenoprotein thioredoxin reductase (TrxR; EC 1.8.1.9) is a FAD containing homodimeric pyridine nucleotide-disulfide oxidoreductase with many cellular roles. Together with NADPH and its prime substrate thioredoxin (Trx), the enzyme forms the core of the Trx system. The mammalian Trx system exerts a wide spectrum of functions including redox regulation, antioxidant defense, regulation of transcription factors as well as support of cell growth and replication. Many of these functions involve the reduction of Trx, which may subsequently reduce a number of different substrates including ribonucleotide reductase, peroxiredoxins or NFkB. Mammalian TrxR itself also has a broad substrate specificity, reducing both protein and non-protein substrates, including low molecular weight compounds such as dehydroascorbate, lipoic acid, ubiquinone, and juglone. In addition, several drugs in clinical use for anticancer treatment are indeed known to target TrxR1.\nThis BioAssay is a validation of an NADPH fluorescence-based, dual-purpose qHTS rTrxR1 assay designed to find potential inhibitors and substrates of rTrxR1. For this particular BioAssay, actives are potential inhibitors. See related BioAssay for substrate data deposition.\nNIH Molecular Libraries Probe Production Network [MLPCN]\nNIH Chemical Genomics Center [NCGC]\nAssay Provider: Elias Arner, Karolinska Institute\nAssay protocol: 2 uL of reagents (buffer in column 4 as negative control and 90 nM rTrxR1 in columns 1-3 and 5-48) were dispensed into Greiner black solid-bottom 1,536-well assay plates, followed by 1 uL of NADPH (400 uM final concentration) to each well. The plates were centrifuged at 1000 rpm for 15 seconds and subsequently incubated for 5 min at room temperature (~22 deg C) to allow for rTrxR1 reduction. Compounds (23 nL) were then transferred via Kalypsys pin tool equipped with 1536-pin array (10 nL slotted pins, V&P Scientific, San Diego, CA). In addition, a duplicate 2-fold serial dilution of the control compounds auranofin, a known gold-based TrxR1 inhibitor, and juglone (5-hydroxy-1,4-naphthoquinone), a natural TrxR1 substrate, were pin-transferred to columns 2 and 3, respectively. After incubation for 15 min at room temperature (~22 deg C), 1 uL of selenite (400 uM final concentration) were dispensed to each well. The plate was immediately transferred to a ViewLux high-throughput CCD imager (PerkinElmer), wherein kinetic measurements of NADPH fluorescence (Ex 340 nm, Em 450 nm) were acquired (8 minute kinetic read, see Table 1). Read 1 was utilized to assess the capacity of a compound to serve as an rTrxR1 substrate, i.e. a decrease in NADPH fluorescence compared to the no-compound background is an indication of a substrate behavior for that particular compound. For inhibitory activity of a compound, delta values, computed as the difference in fluorescence intensity between the first and last reads of an 8-minute time kinetic window, were used. All reagents were diluted in an assay buffer consisting of 50 mM Tris-HCl, pH 7.5, 2 mM EDTA, and 0.01% Tween-20.\nThroughout the screen, reagent bottle and all liquid lines were made light-tight to minimize reagent degradation. All screening operations were performed on a fully integrated robotic system (Kalypsys, San Diego, CA) containing one RX-130 and two RX-90 anthropomorphic robotic arms (Staubli, Duncan, SC). Library plates were screened starting from the lowest and proceeding to the highest concentration, and a 'double-pinning' step of the highest concentration was required to access higher concentrations of compounds. Vehicle-only plates, with DMSO being pin-transferred to the columns 5-48, were inserted uniformly at the beginning and the end of each library in order to monitor and record any shifts in the background, which can be affected by reagent dispensers or loss in enzyme activity over time. […]", "values": [{"smiles": "Cc1cc(C)c(OCC(=O)OCCNC(=O)c2cccnc2)c(C)c1", "Potency": "active: 50.1 µM"}, {"smiles": "Cc1ccc2cc(C(c3nnnn3C3CCCC3)N3CCN(c4ccccc4)CC3)c(=O)[nH]c2c1", "note": "(stereo unspecified)", "Potency": "inconclusive: 79.4 µM [inhibitor, single point]"}, {"smiles": "COc1ccccc1NC(=O)/C(C#N)=C/C=C/c1ccco1", "Potency": "inconclusive: 31.6 µM [inhibitor, partial curve, poor fit]"}, {"smiles": "Cc1ccc(NC(=S)N2CCCC(c3nc4ccccc4[nH]3)C2)cc1", "note": "(stereo unspecified)", "Potency": "inactive"}, {"smiles": "CCCCCCSc1ccc([C@@H]2[C@@H]3C(=O)N(CC)C(=O)[C@@H]3[C@]3(C(=O)OC)CCCCN23)cc1OC", "Potency": "inconclusive: 70.8 µM [inhibitor, partial curve]"}, {"smiles": "CCn1c(NCc2cccc(Cl)c2)nc2ccccc21", "Potency": "inconclusive: 89.1 µM [inhibitor, single point]"}, {"smiles": "Cc1ccc(-c2nn(-c3ccccc3)cc2C2SCC(=O)N2Cc2ccccc2)o1", "note": "(stereo unspecified)", "Potency": "active: 56.2 µM"}, {"smiles": "CN1C(=O)/C(=C2/C=Cc3ccccc3N2CCCS(=O)(=O)O)SC1=S", "Potency": "inconclusive: 28.2 µM [inhibitor, partial curve]"}, {"smiles": "CN(C)c1ccc(C(c2nnnn2CCOC(=O)Nc2ccc(Cl)cc2)N2CCOCC2)cc1", "note": "(stereo unspecified)", "Potency": "inconclusive: 31.6 µM [inhibitor, partial curve]"}, {"smiles": "Cc1ccc(-n2c3c(cc(C(=O)NCc4ccco4)c2=O)C(=O)CC(C)(C)C3)cc1", "Potency": "inconclusive: 39.8 µM [inhibitor, single point]"}, {"smiles": "Cc1ccc(CN2CCNC(=O)C2CC(=O)NCCCn2ncc3ccccc32)o1", "note": "(stereo unspecified)", "Potency": "inconclusive: 56.2 µM [inhibitor, single point]"}, {"smiles": "Cc1csc(-c2coc3cc(O)cc(C)c3c2=O)n1", "Potency": "inconclusive: 3.55 µM [inhibitor, partial curve, poor fit]"}, {"smiles": "O=C(Nc1nc(-c2ccco2)c(-c2ccco2)s1)c1c(F)cccc1Cl", "Potency": "inconclusive: 35.5 µM [inhibitor, full curve]"}, {"smiles": "CCOC(=O)c1sc(/S(C)=N\\S(=O)(=O)c2cccc(Cl)c2)c2c1CCC=C2", "note": "(stereo unspecified)", "Potency": "inconclusive: 50.1 µM [inhibitor, partial curve, poor fit]"}, {"smiles": "C#CCOCCOCCOCCNc1nc(N2CCN(C(=O)CCCCCCCCCCNC(=O)[C@H](CO)n3cc(CCCSC)nn3)CC2)nc(N2CCN(C(=O)CCCCCCCCCCNC(=O)[C@H](CCCCN)n3cc(CCO)nn3)CC2)n1", "Potency": "inconclusive: 3.98 µM [inhibitor, full curve]"}, {"smiles": "CCOC(=O)c1cc2ccc(OC(=O)c3ccco3)cc2oc1=O", "Potency": "inconclusive: 25.1 µM [inhibitor, single point]"}]}]}
